From the supplement of paper PMC12423691
Some of the results follow. Binding of human transcription factors and regulators to the viral nucleoprotein by AlphaScreen, crude cell-free proteins, amounts not normalised, one pass. Fold of the Venus control; higher = more signal. No active / inactive call. Single-pass screen; sequences are the whole Swiss-Prot entries looked up by name.

B1: LMO2, P25791 (protein)
chain: MSSAIERKSLDPSEEPVDEVLQIPPSLLTCGGCQQNIGDRYFLKAIDQYWHEDCLSCDLCGCRLGEVGRRLYYKLGRKLCRRDYLRLFGQDGLCASCDKRIRAYEMTMRVKDKVYHLECFKCAACQKHFCVGDRYLLINSDIVCEQDIYEWTKINGMI
B2: CHCHD3, Q9NX63 (protein)
chain: MGGTTSTRRVTFEADENENITVVKGIRLSENVIDRMKESSPSGSKSQRYSGAYGASVSDEELKRRVAEELALEQAKKESEDQKRLKQAKELDRERAAANEQLTRAILRERICSEEERAKAKHLARQLEEKDRVLKKQDAFYKEQLARLEERSSEFYRVTTEQYQKAAEEVEAKFKRYESHPVCADLQAKILQCYRENTHQTLKCSALATQYMHCVNHAKQSMLEKGG
B3: MEIS2, O14770 (protein)
chain: MAQRYDELPHYGGMDGVGVPASMYGDPHAPRPIPPVHHLNHGPPLHATQHYGAHAPHPNVMPASMGSAVNDALKRDKDAIYGHPLFPLLALVFEKCELATCTPREPGVAGGDVCSSDSFNEDIAVFAKQVRAEKPLFSSNPELDNLMIQAIQVLRFHLLELEKVHELCDNFCHRYISCLKGKMPIDLVIDERDGSSKSDHEELSGSSTNLADHNPSSWRDHDDATSTHSAGTPGPSSGGHASQSGDNSSEQGDGLDNSVASPGTGDDDDPDKDKKRQKKRGIFPKVATNIMRAWLFQHLTHPYPSEEQKKQLAQDTGLTILQVNNWFINARRRIVQPMIDQSNRAGFLLDPSVSQGAAYSPEGQPMGSFVLDGQQHMGIRPAGLQSMPGDYVSQGGPMGMSMAQPSYTPPQMTPHPTQLRHGPPMHSYLPSHPHHPAMMMHGGPPTHPGMTMSAQSPTMLNSVDPNVGGQVMDIHAQ
B4: SPDEF, O95238 (protein)
chain: MGSASPGLSSVSPSHLLLPPDTVSRTGLEKAAAGAVGLERRDWSPSPPATPEQGLSAFYLSYFDMLYPEDSSWAAKAPGASSREEPPEEPEQCPVIDSQAPAGSLDLVPGGLTLEEHSLEQVQSMVVGEVLKDIETACKLLNITADPMDWSPSNVQKWLLWTEHQYRLPPMGKAFQELAGKELCAMSEEQFRQRSPLGGDVLHAHLDIWKSAAWMKERTSPGAIHYCASTSEESWTDSEVDSSCSGQPIHLWQFLKELLLKPHSYGRFIRWLNKEKGIFKIEDSAQVARLWGIRKNRPAMNYDKLSRSIRQYYKKGIIRKPDISQRLVYQFVHPI
B5: ZNF138, P52744 (protein)
chain: MKRHEMVVAKHSALCSRFAQDLWLEQNIKDSFQKVTLSRYGKYGHKNLQLRKGCKSVDECKGHQGGFNGLNQCLKITTSKIFQCNKYVKVMHKFSNSNRHKIRHTENKHFRCKECDKSLCMLSRLTQHKKIHTRENFYKCEECGKTFNWSTNLSKPKKIHTGEKPYKCEVCGKAFHQSSILTKHKIIRTGEKPYKCAHCGKAFKQSSHLTRHKIIHTEEKPYKCEQCGKVFKQSPTLTKHQIIYTGEEPYKCEECGKAFNLS
B6: VAX2, Q9UIW0 (protein)
chain: MGDGGAERDRGPARRAESGGGGGRCGDRSGAGDLRADGGGHSPTEVAGTSASSPAGSRESGADSDGQPGPGEADHCRRILVRDAKGTIREIVLPKGLDLDRPKRTRTSFTAEQLYRLEMEFQRCQYVVGRERTELARQLNLSETQVKVWFQNRRTKQKKDQSRDLEKRASSSASEAFATSNILRLLEQGRLLSVPRAPSLLALTPSLPGLPASHRGTSLGDPRNSSPRLNPLSSASASPPLPPPLPAVCFSSAPLLDLPAGYELGSSAFEPYSWLERKVGSASSCKKANT
B7: CBFA2T2, O43439 (protein)
chain: MAKESGISLKEIQVLARQWKVGPEKRVPAMPGSPVEVKIQSRSSPPTMPPLPPINPGGPRPVSFTPTALSNGINHSPPTLNGAPSPPQRFSNGPASSTSSALTNQQLPATCGARQLSKLKRFLTTLQQFGNDISPEIGEKVRTLVLALVNSTVTIEEFHCKLQEATNFPLRPFVIPFLKANLPLLQRELLHCARAAKQTPSQYLAQHEHLLLNTSIASPADSSELLMEVHGNGKRPSPERREENSFDRDTIAPEPPAKRVCTISPAPRHSPALTVPLMNPGGQFHPTPPPLQHYTLEDIATSHLYREPNKMLEHREVRDRHHSLGLNGGYQDELVDHRLTEREWADEWKHLDHALNCIMEMVEKTRRSMAVLRRCQESDREELNYWKRRYNENTELRKTGTELVSRQHSPGSADSLSNDSQREFNSRPGTGYVPVEFWKKTEEAVNKVKIQAMSEVQKAVAEAEQKAFEVIATERARMEQTIADVKRQAAEDAFLVINEQEESTENCWNCGRKASETCSGCNIARYCGSFCQHKDWERHHRLCGQNLHGQSPHGQGRPLLPVGRGSSARSADCSVPSPALDKTSATTSRSSTPASVTAIDTNGL
B8: FZD4, Q9ULV1 (protein)
chain: MAWRGAGPSVPGAPGGVGLSLGLLLQLLLLLGPARGFGDEEERRCDPIRISMCQNLGYNVTKMPNLVGHELQTDAELQLTTFTPLIQYGCSSQLQFFLCSVYVPMCTEKINIPIGPCGGMCLSVKRRCEPVLKEFGFAWPESLNCSKFPPQNDHNHMCMEGPGDEEVPLPHKTPIQPGEECHSVGTNSDQYIWVKRSLNCVLKCGYDAGLYSRSAKEFTDIWMAVWASLCFISTAFTVLTFLIDSSRFSYPERPIIFLSMCYNIYSIAYIVRLTVGRERISCDFEEAAEPVLIQEGLKNTGCAIIFLLMYFFGMASSIWWVILTLTWFLAAGLKWGHEAIEMHSSYFHIAAWAIPAVKTIVILIMRLVDADELTGLCYVGNQNLDALTGFVVAPLFTYLVIGTLFIAAGLVALFKIRSNLQKDGTKTDKLERLMVKIGVFSVLYTVPATCVIACYFYEISNWALFRYSADDSNMAVEMLKIFMSLLVGITSGMWIWSAKTLHTWQKCSNRLVNSGKVKREKRGNGWVKPGKGSETVV

Each binder was assayed against nucleoprotein N of Crimean-Congo hemorrhagic fever virus (assay: AlphaScreen luminescence signal relative to Venus negative control (fold); higher = stronger binding to CCHFV N).
Procedure: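 AlphaScreen binding of cell-free made, FLAG-GST-tagged human transcription factors and regulators (crude translation products) to biotinylated N protein; signal as fold of the FLAG-GST-Venus control. One pass.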

| Binder | AlphaScreen luminescence signal |
| --- | --- |
| B1 | 3.53 |
| B2 | 2.6 |
| B3 | 1.72 |
| B4 | 1.86 |
| B5 | 2.79 |
| B6 | 3.77 |
| B7 | 1.67 |
| B8 | 2.51 |
